Measured values reported in the supplement of paper PMC4604168 (melanoma cell lines).
The other results are listed elsewhere or left out. Single values are uncertain, as repeats are few or missing.

Legend:
Assay in all cases: cell count relative to DMSO control; melanoma cells; higher = more viable cells
Details in all cases: library dose: standard library concentration; 72 h
[1] = system: G361
[2] = system: IPC-298
[3] = system: IST-MEL1
[4] = system: LB2518-MEL
[5] = system: LOXIMVI
[6] = system: MEL-HO
[7] = system: MZ2-MEL
[8] = system: MeWo
[9] = system: RPMI7951
[10] = system: RVH-421
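Further: cells treated in 1,536-well plates, then fixed and DAPI-stained, with nuclei counted from automated high-throughput microscope images.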

SMILES	cell count [1] [%]	cell count [2] [%]	cell count [3] [%]	cell count [4] [%]	cell count [5] [%]	cell count [6] [%]	cell count [7] [%]	cell count [8] [%]	cell count [9] [%]	cell count [10] [%]
Cc1nc(Nc2ncc(C(=O)Nc3c(C)cccc3Cl)s2)cc(N2CCN(CCO)CC2)n1 [dasatanib] + CC(C)(C)c1cnc(CSc2cnc(NC(=O)C3CCNCC3)s2)o1 [SNS-032] (first compound 0.02 µM, partner dose 0.05 µM)	65.9	119	68.5	76.5	8.85	87.3	37.7	85.7	19.3	56.1
OCCn1cc(-c2cnc3nnn(Cc4ccc5ncccc5c4)c3n2)cn1 + CN(C)S(=O)(=O)c1ccc2c(c1)/C(=C/c1cc3c([nH]1)CCCC3)C(=O)N2 [SU6656] (first compound 5 µM, partner dose 2 µM)	69.5	60.5	74.4	75.2	95.1	81.6	100	65.9	40.9	64.6
NC(=O)Nc1cc(-c2cccc(F)c2)sc1C(=O)N[C@H]1CCCNC1 + C[C@@H]1CCN(C(=O)CC#N)C[C@@H]1N(C)c1ncnc2[nH]ccc12 [CP690550] (first compound 0.1 µM, partner dose 5 µM)	94.1	106	87.7	63.4	77.5	90.9	118	91.9	43.4	105
CN(C)S(=O)(=O)c1ccc2c(c1)/C(=C/c1cc3c([nH]1)CCCC3)C(=O)N2 + COc1cc2ncnc(Nc3ccc(Oc4ccccc4)cc3)c2cc1OC [SrcI1] (first compound 2 µM, partner dose 10 µM)	27.9	51.9	70.5	94.8	121	71.7	67.1	56.8	31.4	88.8
CO[C@@H]1[C@H](N(C)C(=O)c2ccccc2)C[C@H]2O[C@]1(C)n1c3ccccc3c3c4c(c5c6ccccc6n2c5c31)C(=O)NC4 [Midostaurin] + O=C(Nc1ccccc1)c1cc([N+](=O)[O-])ccc1Cl [GW9662] (first compound 0.4 µM, partner dose 10 µM)	43.9	53.5	63	42.6	35	57.9	41.3	44.8	39.1	83
CO[C@@H]1[C@H](N(C)C(=O)c2ccccc2)C[C@H]2O[C@]1(C)n1c3ccccc3c3c4c(c5c6ccccc6n2c5c31)C(=O)NC4 [Midostaurin] + COc1ccc2c(c1)CCC1C2CCC2(C)C(NCCCCCCN3C(=O)C=CC3=O)CCC12 [U73122] (first compound 0.4 µM, partner dose 2 µM)	53.2	83.1	82.8	73.2	48.7	79.8	69.8	50.5	22.4	56.7
C[C@]1(c2nc3c(C(N)=O)cccc3[nH]2)CCCN1 [Veliparib] + Cc1cc([N+](=O)[O-])ccc1NS(=O)(=O)c1cc(Cl)ccc1Cl [FH535] (first compound 7 µM, partner dose 5 µM)	44.7	55.2	56.9	75.9	63.1	57.3	58.5	74	83	73.9
NC(=O)Nc1cc(-c2cccc(F)c2)sc1C(=O)N[C@H]1CCCNC1 + COc1ccc(-c2ccc3c(N4CCOCC4)nc(N4C[C@@H](C)O[C@@H](C)C4)nc3n2)cc1CO [KU0063794] (first compound 0.1 µM, partner dose 0.1 µM)	79.9	53.6	79.5	51.1	57.2	75	60.6	70.9	31.9	115
NC(=O)Nc1cc(-c2cccc(F)c2)sc1C(=O)N[C@H]1CCCNC1 + Cc1cc(N2CCOCC2)cc2[nH]c(-c3c(NC[C@@H](O)c4cccc(Cl)c4)cc[nH]c3=O)nc12 [BMS536924] (first compound 0.1 µM, partner dose 1 µM)	65.4	77.7	85.2	60.7	48.6	73.8	99.3	53.9	27.3	80.6
C=CCn1c(=O)c2cnc(Nc3ccc(N4CCN(C)CC4)cc3)nc2n1-c1cccc(C(C)(C)O)n1 + Cc1ccc(NC(=O)c2cccc(N(C)C)c2)cc1NC(=O)c1ccc(O)cc1 [ZM336372] (first compound 0.1 µM, partner dose 10 µM)	79.1	80.3	79.4	44.9	96.6	81.7	93.6	67.9	59.7	103
NCC(=O)Nc1ccc(-n2nc(C(F)(F)F)cc2-c2ccc3c(ccc4ccccc43)c2)cc1 + COc1cc2c(Oc3ccc4[nH]c(C)cc4c3F)ncnc2cc1OCCCN1CCCC1 [cediranib] (first compound 5 µM, partner dose 2 µM)	53.7	59.8	91.5	59.1	72.9	76.3	93.2	82.7	34.5	75.6
Cc1nc(Nc2ncc(C(=O)Nc3c(C)cccc3Cl)s2)cc(N2CCN(CCO)CC2)n1 [dasatanib] + C[C@@H]1CCN(C(=O)CC#N)C[C@@H]1N(C)c1ncnc2[nH]ccc12 [CP690550] (first compound 0.02 µM, partner dose 5 µM)	67.8	104	71.4	80.8	6.93	80.3	58.4	114	44.5	80.7
C=CCn1c(=O)c2cnc(Nc3ccc(N4CCN(C)CC4)cc3)nc2n1-c1cccc(C(C)(C)O)n1 + Oc1nc(-c2ccc(C(F)(F)F)cc2)nc2c1CSCC2 [XAV939] (first compound 0.1 µM, partner dose 10 µM)	70	78.4	85	73.1	116	91.5	88.3	71.6	46.4	85.2
OCCn1cc(-c2cnc3nnn(Cc4ccc5ncccc5c4)c3n2)cn1 + COc1cc(N2CCC(N3CCN(C)CC3)CC2)ccc1Nc1ncc(Cl)c(Nc2ccccc2S(=O)(=O)C(C)C)n1 [NVP-TAE684] (first compound 5 µM, partner dose 0.4 µM)	78.6	84.9	102	89.5	87.2	81.6	26.4	70.3	66.6	94.9
OCCn1cc(-c2cnc3nnn(Cc4ccc5ncccc5c4)c3n2)cn1 + COc1cc2ncnc(Nc3ccc(Oc4ccccc4)cc3)c2cc1OC [SrcI1] (first compound 5 µM, partner dose 10 µM)	69.5	76.3	86.6	119	75.2	89.4	81.7	91	49.9	124
CN(C)S(=O)(=O)c1ccc2c(c1)/C(=C/c1cc3c([nH]1)CCCC3)C(=O)N2 + COc1cc2c(Oc3ccc4[nH]c(C)cc4c3F)ncnc2cc1OCCCN1CCCC1 [cediranib] (first compound 2 µM, partner dose 2 µM)	72.1	68.3	64.6	69.9	72.9	79.1	85.9	67.5	34.7	95.9
NC(=O)Nc1cc(-c2cccc(F)c2)sc1C(=O)N[C@H]1CCCNC1 + Cn1cc(/C=C2\C(=O)Nc3cccnc32)c2ccccc21 [GW441756] (first compound 0.1 µM, partner dose 2 µM)	93.8	75.3	98.3	61.6	92.3	79.4	89.1	83.6	39.1	90.2
NCC(=O)Nc1ccc(-n2nc(C(F)(F)F)cc2-c2ccc3c(ccc4ccccc43)c2)cc1 + O=C(Nc1ccccc1)c1cc([N+](=O)[O-])ccc1Cl [GW9662] (first compound 5 µM, partner dose 10 µM)	67.6	50.9	88.9	83.3	73.7	78.4	71.9	69.3	71.5	70.3
NC(=O)Nc1cc(-c2cccc(F)c2)sc1C(=O)N[C@H]1CCCNC1 + COC(=O)c1sccc1S(=O)(=O)Nc1ccc(Nc2ccccc2)cc1OC [GSK0660] (first compound 0.1 µM, partner dose 5 µM)	96.4	84.8	93.8	67	89.4	81.7	93.9	80.6	27.2	126
C=CCn1c(=O)c2cnc(Nc3ccc(N4CCN(C)CC4)cc3)nc2n1-c1cccc(C(C)(C)O)n1 + CN(C)S(=O)(=O)c1ccc2c(c1)/C(=C/c1cc3c([nH]1)CCCC3)C(=O)N2 [SU6656] (first compound 0.1 µM, partner dose 2 µM)	81.4	72.8	92.6	51.5	94	87.2	93.6	74.7	47.3	76.3
OCCn1cc(-c2cnc3nnn(Cc4ccc5ncccc5c4)c3n2)cn1 + O=C(Nc1cccc(Cl)c1)Nc1ncc(CCNc2ncnc3ccsc23)s1 [SNS314] (first compound 5 µM, partner dose 0.004 µM)	86.4	87.7	47.8	75.3	63.3	71.9	81.4	62.8	64.8	68.5
